From the supplement of paper PMC8728848
This is one part of the list.

Tests used:
Experiment in all cases: glycan array binding signal (z-score within array); higher = stronger binding
Settings in all cases: glycan notation: IUPAC condensed, linker removed
[1] = biological target: Fuc(a1-2)[GalNAc(a1-3)]Gal(b1-3)GlcNAc(b1-6)GalNAc
Outline: (§1)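 The Consortium for Functional Glycomics database supplied 3228 glycan arrays, of which those lacking an available protein sequence were dropped. The binding signal, a within-array Z-score, was averaged across arrays of the same protein sequence and across linkers. Negative scores can be read as non-binding.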

[2] = biological target: Fuc(a1-2)[GalNAc(a1-3)]Gal(b1-4)Glc
Outline: as §1

[3] = biological target: Fuc(a1-2)[GalNAc(a1-3)]Gal(b1-4)GlcNAc
Outline: as §1

[4] = biological target: Fuc(a1-2)[GalNAc(a1-3)]Gal(b1-4)GlcNAc(b1-2)Man
Outline: as §1

[5] = biological target: Fuc(a1-2)[GalNAc(a1-3)]Gal(b1-4)GlcNAc(b1-2)Man(a1-3)[Fuc(a1-2)[GalNAc(a1-3)]Gal(b1-4)GlcNAc(b1-2)Man(a1-6)]Man(b1-4)GlcNAc(b1-4)GlcNAc
Outline: as §1

[6] = biological target: Fuc(a1-2)[GalNAc(a1-3)]Gal(b1-4)GlcNAc(b1-2)Man(a1-3)[Fuc(a1-2)[GalNAc(a1-3)]Gal(b1-4)GlcNAc(b1-2)Man(a1-6)]Man(b1-4)GlcNAc(b1-4)[Fuc(a1-6)]GlcNAc
Outline: as §1

[7] = biological target: Fuc(a1-2)[GalNAc(a1-3)]Gal(b1-4)GlcNAc(b1-3)Gal(b1-4)GlcNAc
Outline: as §1

[8] = biological target: Fuc(a1-2)[GalNAc(a1-3)]Gal(b1-4)GlcNAc(b1-3)Gal(b1-4)GlcNAc(b1-3)Gal(b1-4)GlcNAc
Outline: as §1

[9] = biological target: Fuc(a1-2)[GalNAc(a1-3)]Gal(b1-4)GlcNAc(b1-3)GalNAc
Outline: as §1

[10] = biological target: Fuc(a1-2)[GalNAc(a1-3)]Gal(b1-4)GlcNAc(b1-3)[Fuc(a1-2)[GalNAc(a1-3)]Gal(b1-4)GlcNAc(b1-6)]GalNAc
Outline: as §1

[11] = biological target: Fuc(a1-2)[GalNAc(a1-3)]Gal(b1-4)GlcNAc(b1-6)GalNAc
Outline: as §1

[12] = biological target: Fuc(a1-2)[GalNAc(a1-3)]Gal(b1-4)[Fuc(a1-3)]GlcNAc
Outline: as §1

[13] = biological target: Fuc(a1-2)[GalNAc(a1-3)]Gal(b1-4)[Fuc(a1-3)]GlcNAc(b1-3)GalNAc
Outline: as §1

[14] = biological target: Fuc(a1-2)[GalNAc(a1-4)]Gal(b1-4)GlcNAc
Outline: as §1

[15] = biological target: Fuc(a1-2)[GalNAc(b1-3)]Gal
Outline: as §1

[16] = biological target: Fuc(a1-3)GlcNAc
Outline: as §1

[17] = biological target: Fuc(a1-3)[Gal(b1-4)]Glc6S
Outline: as §1

[18] = biological target: Fuc(a1-3)[Gal(b1-4)]GlcNAc
Outline: as §1

[19] = biological target: Fuc(a1-3)[Gal(b1-4)]GlcNAc(b1-2)Man
Outline: as §1

[20] = biological target: Fuc(a1-3)[Gal(b1-4)]GlcNAc(b1-2)Man(a1-3)[Fuc(a1-3)[Gal(b1-4)]GlcNAc(b1-2)Man(a1-6)]Man(b1-4)GlcNAc(b1-4)GlcNAc
Outline: as §1

[21] = biological target: Fuc(a1-3)[Gal(b1-4)]GlcNAc(b1-2)Man(a1-3)[Fuc(a1-3)[Gal(b1-4)]GlcNAc(b1-2)Man(a1-6)]Man(b1-4)GlcNAc(b1-4)[Fuc(a1-6)]GlcNAc
Outline: as §1

[22] = biological target: Fuc(a1-3)[Gal(b1-4)]GlcNAc(b1-3)Gal(b1-3)[Fuc(a1-4)]GlcNAc
Outline: as §1

[23] = biological target: Fuc(a1-3)[Gal(b1-4)]GlcNAc(b1-3)Gal(b1-4)[Fuc(a1-3)]GlcNAc
Outline: as §1

[24] = biological target: Fuc(a1-3)[Gal(b1-4)]GlcNAc(b1-3)Gal(b1-4)[Fuc(a1-3)]GlcNAc(b1-3)Gal(b1-4)[Fuc(a1-3)]GlcNAc
Outline: as §1

[25] = biological target: Fuc(a1-3)[Gal(b1-4)]GlcNAc(b1-3)GalNAc
Outline: as §1

[26] = biological target: Fuc(a1-3)[Gal(b1-4)]GlcNAc(b1-6)GalNAc
Outline: as §1

[27] = biological target: Fuc(a1-3)[Gal(b1-4)]GlcNAc(b1-6)[Gal(b1-3)GlcNAc(b1-3)]Gal(b1-4)Glc
Outline: as §1

[28] = biological target: Fuc(a1-3)[Gal(b1-4)]GlcNAc6S
Outline: as §1

[29] = biological target: Fuc(a1-3)[Gal3S(b1-4)]Glc
Outline: as §1

[30] = biological target: Fuc(a1-3)[Gal3S(b1-4)]GlcNAc
Outline: as §1

[31] = biological target: Fuc(a1-3)[Gal3S(b1-4)]GlcNAc6S
Outline: as §1

[32] = biological target: Fuc(a1-3)[GalNAc(b1-4)]GlcNAc
Outline: as §1

[33] = biological target: Fuc(a1-3)[GalNAc(b1-4)]GlcNAc6S
Outline: as §1

[34] = biological target: Fuc(a1-4)GlcNAc
Outline: as §1

[35] = biological target: Fuc(b1-3)GlcNAc
Outline: as §1

[36] = biological target: Gal(a1-2)Gal
Outline: as §1

[37] = biological target: Gal(a1-3)Gal
Outline: as §1

[38] = biological target: Gal(a1-3)Gal(b1-3)GlcNAc
Outline: as §1

[39] = biological target: Gal(a1-3)Gal(b1-3)GlcNAc(b1-2)Man
Outline: as §1

[40] = biological target: Gal(a1-3)Gal(b1-3)GlcNAc(b1-2)Man(a1-3)[Gal(a1-3)Gal(b1-3)GlcNAc(b1-2)Man(a1-6)]Man(b1-4)GlcNAc(b1-4)GlcNAc
Outline: as §1

[41] = biological target: Gal(a1-3)Gal(b1-3)GlcNAc(b1-3)GalNAc
Outline: as §1

[42] = biological target: Gal(a1-3)Gal(b1-3)GlcNAc(b1-6)GalNAc
Outline: as §1

[43] = biological target: Gal(a1-3)Gal(b1-3)[Fuc(a1-4)]GlcNAc(b1-2)Man(a1-3)[Gal(a1-3)Gal(b1-3)[Fuc(a1-4)]GlcNAc(b1-2)Man(a1-6)]Man(b1-4)GlcNAc(b1-4)GlcNAc
Outline: as §1

[44] = biological target: Gal(a1-3)Gal(b1-4)Glc
Outline: as §1

[45] = biological target: Gal(a1-3)Gal(b1-4)GlcNAc
Outline: as §1

B1: LecB PA14 (Pseudomonas aeruginosa) (protein)
chain: MATQGVFTLPANTQFGVTAFANSAGTQTVNVQVNNETVATFTGQSTNNAIIGSKVLNSGGGGKVQILVSVNGRSSDLVSAQVILANELNFALVGSEDSTDNDYNDAVVVINWPLG
- glycan array binding signal (z-score) [1]: -0.191
- glycan array binding signal (z-score) [2]: 0.672
- glycan array binding signal (z-score) [3]: -0.464
- glycan array binding signal (z-score) [4]: -0.555
- glycan array binding signal (z-score) [5]: -0.687
- glycan array binding signal (z-score) [6]: 0.936
- glycan array binding signal (z-score) [7]: -0.605
- glycan array binding signal (z-score) [8]: -0.182
- glycan array binding signal (z-score) [9]: -0.255
- glycan array binding signal (z-score) [10]: -0.208
- glycan array binding signal (z-score) [11]: -0.429
- glycan array binding signal (z-score) [12]: 0.193
- glycan array binding signal (z-score) [13]: 0.828
- glycan array binding signal (z-score) [14]: 1.75
- glycan array binding signal (z-score) [15]: -0.241
- glycan array binding signal (z-score) [16]: -0.19
- glycan array binding signal (z-score) [17]: -0.209
- glycan array binding signal (z-score) [18]: 0.338
- glycan array binding signal (z-score) [19]: -0.362
- glycan array binding signal (z-score) [20]: -0.401
- glycan array binding signal (z-score) [21]: -0.163
- glycan array binding signal (z-score) [22]: 0.201
- glycan array binding signal (z-score) [23]: 0.034
- glycan array binding signal (z-score) [24]: 4.17
- glycan array binding signal (z-score) [25]: -0.769
- glycan array binding signal (z-score) [26]: -0.311
- glycan array binding signal (z-score) [27]: 0.475
- glycan array binding signal (z-score) [28]: 2.1
- glycan array binding signal (z-score) [29]: -0.244
- glycan array binding signal (z-score) [30]: 0.431
- glycan array binding signal (z-score) [31]: -0.189
- glycan array binding signal (z-score) [32]: 5.42
- glycan array binding signal (z-score) [33]: 2.49
- glycan array binding signal (z-score) [34]: 1.58
- glycan array binding signal (z-score) [35]: -0.502
- glycan array binding signal (z-score) [36]: -0.53
- glycan array binding signal (z-score) [37]: -0.72
- glycan array binding signal (z-score) [38]: -0.235
- glycan array binding signal (z-score) [39]: -0.751
- glycan array binding signal (z-score) [40]: -0.562
- glycan array binding signal (z-score) [41]: -0.291
- glycan array binding signal (z-score) [42]: -0.11
- glycan array binding signal (z-score) [43]: 2.54
- glycan array binding signal (z-score) [44]: -0.164
- glycan array binding signal (z-score) [45]: -0.867
